This is an account of results in PubChem BioAssay AID296 (DTP/NCI, 2004).

The experiment relates to MX-1 breast xenograft, nude mice, tumor weight T/C. Kind of experiment: NCI In Vivo Anticancer Drug Screen. Data for tumor model Human Mammary Carcinoma MX-1 Xenograft (intrarenal inoculation) in NU/NU Swiss (nude) mice. The note with it: endpoint: mean tumor weight change, higher = larger tumour. How it is done: The antitumor activity of compounds was measured in mice bearing transplantable tumors. Survival or tumor size were measured and the results are expressed as the measurement made in the treated group (T) divided by the measurement made in the vehicle treated control group (C). The tumor model used in this assay is Human Mammary Carcinoma MX-1 Xenograft (intrarenal inoculation) in NU/NU Swiss (nude) mice
(In general: Xenograft models place foreign cells or tissue in a host animal.)

Where [1] appears, read: dose: 200.0 mg/kg/injection, schedule: Q01DX010 (sc), vehicle: Klucel (hydroxypropylcellulose) (HPC).
Where [2] appears, read: dose: 2.0 mg/kg/injection, schedule: Q01DX010 (sc), vehicle: saline.

Each structure is given as a SMILES string. Inconclusive results are not listed. A number of entries come with more than one value. The list is limited to them. The source may hold further records. Results that share an entry repeat one measurement across runs, samples, wells, individuals or studies.

As to `Cc1ccc(S(=O)(=O)N/N=C/C(=O)O)cc1`, the T/C is, setting by setting: (dose: 100.0 mg/kg/injection, schedule: Q01DX010 (sc), vehicle: Klucel (hydroxypropylcellulose) (HPC)) 87 % of control and 117 % of control; under setting [1], 50 % of control and 91 % of control.
For `Nc1nnc[se]1`, the T/C runs as follows: (dose: 200.0 mg/kg/injection, schedule: Q04DX003 (sc), vehicle: saline with Tween-80) 40 % of control, 85 % of control, 99 % of control; (dose: 400.0 mg/kg/injection, schedule: Q04DX003 (sc), vehicle: saline with Tween-80) 16 % of control, 48 % of control, 73 % of control; (dose: 800.0 mg/kg/injection, schedule: Q04DX003 (sc), vehicle: saline with Tween-80) 8 % of control, 41 % of control, 62 % of control.
For `O=C(O)C(CSC(c1ccccc1)(c1ccccc1)c1ccccc1)N=Cc1cccs1` (stereo not drawn), the T/C was 68 % of control and 120 % of control (dose: 100.0 mg/kg/injection, schedule: Q04DX003 (sc), vehicle: suspension in saline); 37 % of control, 79 % of control, 116 % of control (dose: 200.0 mg/kg/injection, schedule: Q04DX003 (sc), vehicle: suspension in saline); 17 % of control, 71 % of control, 81 % of control (dose: 400.0 mg/kg/injection, schedule: Q04DX003 (sc), vehicle: suspension in saline).
`O=C1N[C@@H]([C@H]2CC[C@H](Cl)CN2)C(=O)N[C@H]1[C@H]1CC[C@H](Cl)CN1`: the T/C (dose: 1.25 mg/kg/injection, schedule: Q01DX010 (sc), vehicle: water) was 76 % of control and 123 % of control.
Consider `CC(Cc1ccc(O)cc1)NCC(O)c1ccc(O)c(O)c1` (stereo not drawn), for which, where the note is “dose: 300.0 mg/kg/injection, schedule: Q04DX003 (sc), vehicle: saline with Tween-80”, the T/C was 63 % of control and 94 % of control.
`COc1cccc2c1C(=O)c1c(O)c3c(c(O)c1C2=O)C[C@@](O)(C(C)=O)C[C@@H]3OC1CC(N)C(O)C(C)O1` (stereo partly drawn): under setting [2], the T/C is 93 % of control and 151 % of control.
For `C1CN1c1nc(N2CC2)nc(N2CC2)n1`, the T/C is -36 % of control and 9 % of control (dose: 0.13 mg/kg/injection, schedule: Q01DX010 (sc), vehicle: saline); -65 % of control and -22 % of control (dose: 0.25 mg/kg/injection, schedule: Q01DX010 (sc), vehicle: saline).
On to `C/C=C1\C[C@@H]2C(OC)Nc3cc(O)c(OC)cc3C(=O)N2C1` (stereo partly drawn), for which the T/C by setting is: (dose: 2.0 mg/kg/injection, schedule: Q04DX003 (sc), vehicle: saline) 30 % of control and 65 % of control; (dose: 8.0 mg/kg/injection, schedule: Q04DX003 (sc), vehicle: saline) -60 % of control and 18 % of control.
`CC[C@@]1(O)C[C@H](OC2CC(N(C)C)C(OC3CC(O)C(OC4CCC(=O)C(C)O4)C(C)O3)C(C)O2)c2c(cc3c(c2O)C(=O)c2c(O)cccc2C3=O)[C@H]1C(=O)OC` (stereo partly drawn): the T/C reads like this: (dose: 1.0 mg/kg/injection, schedule: Q01DX010 (ip), vehicle: water) 34 % of control and 61 % of control; (dose: 2.0 mg/kg/injection, schedule: Q01DX010 (sc), vehicle: water) 62 % of control and 121 % of control.
`CCOC(=O)C(N)CSC(=O)NC` (stereo not drawn): the T/C (dose: 112.5 mg/kg/injection, schedule: Q04DX003 (sc), vehicle: saline) was 57 % of control and 161 % of control.
For the compound `CC(C)NC(=O)N(CCCCBr)N=O`, the T/C is, setting by setting: (dose: 150.0 mg/kg/injection, schedule: Q04DX003 (sc), vehicle: Klucel (hydroxypropylcellulose) (HPC)) 20 % of control and 61 % of control; (dose: 600.0 mg/kg/injection, schedule: Q04DX003 (sc), vehicle: Klucel (hydroxypropylcellulose) (HPC)) -14 % of control and 19 % of control.
With `[N-]=[N+]=CC(=O)CCC(=O)C=[N+]=[N-]`, under “dose: 1.5 mg/kg/injection, schedule: Q01DX010 (sc), vehicle: DMSO”, the T/C is -100 % of control and -25 % of control.
Turning to `CC(C)[C@](O)(C(=O)OCC1=CC[N+]2([O-])CC[C@@H](O)[C@@H]12)[C@H](C)O` (stereo partly drawn), the T/C was 23 % of control, 40 % of control, 82 % of control (dose: 100.0 mg/kg/injection, schedule: Q01DX010 (sc), vehicle: water); 46 % of control, 65 % of control, 74 % of control (dose: 200.0 mg/kg/injection, schedule: Q01DX010 (sc), vehicle: water); 7 % of control, 30 % of control, 41 % of control (dose: 400.0 mg/kg/injection, schedule: Q01DX010 (sc), vehicle: water); -65 % of control, -51 % of control, 4 % of control (dose: 800.0 mg/kg/injection, schedule: Q01DX010 (sc), vehicle: water).
For the compound `CS(=O)(=O)OCCCNCCCOS(C)(=O)=O`, where the note is “dose: 37.5 mg/kg/injection, schedule: Q04DX003 (sc), vehicle: saline”, the T/C is 3 % of control and 41 % of control.
As to `O=C(Nc1ccc(N=C=S)cc1Cl)c1cc(Cl)cc(Cl)c1O`, where the note is “dose: 200.0 mg/kg/injection, schedule: Q04DX003 (sc), vehicle: Klucel (hydroxypropylcellulose) (HPC)”, the T/C was 68 % of control and 116 % of control.
With `Cc1c(N)nc([C@H](CC(N)=O)NC[C@H](N)C(N)=O)nc1C(=O)N[C@H](C(=O)N[C@H](C)[C@@H](O)[C@H](C)C(=O)N[C@H](C(=O)NCCc1nc(-c2nc(C(=O)NCCC[S+](C)C)cs2)cs1)[C@@H](C)O)C(OC1OC(CO)C(O)C(O)C1OC1OC(CO)C(O)C(OC(N)=O)C1O)c1cnc[nH]1` (stereo partly drawn), the T/C (dose: 26.66 mg/kg/injection, schedule: Q04DX003 (sc), vehicle: saline) is 72 % of control and 101 % of control.
Consider `COc1cc(NCc2ccc3nc(N)nc(N)c3c2C)cc(OC)c1OC`, for which the T/C is, setting by setting: (dose: 5.0 mg/kg/injection, schedule: Q01DX010 (sc), vehicle: sodium bicarbonate) 19 % of control, 112 % of control, 180 % of control; (dose: 10.0 mg/kg/injection, schedule: Q01DX010 (sc), vehicle: sodium bicarbonate) 62 % of control and 123 % of control.
In the case of `S=P(N1CC1)(N1CC1)N1CC1`, the T/C is -46 % of control and 9 % of control (dose: 1.0 mg/kg/injection, schedule: Q01DX010 (sc), vehicle: saline); -79 % of control and -15 % of control under setting [2].
For `ClCC[N+]12CC[N+](CCCl)(CC1)C2`, the T/C (dose: 200.0 mg/kg/injection, schedule: Q04DX003 (sc), vehicle: water) is 50 % of control and 87 % of control.
On to `CC(=O)OCC1OC(n2ccc(N)nc2=O)C(OC(C)=O)C1OC(C)=O` (stereo not drawn), for which the T/C by setting is: (dose: 300.0 mg/kg/injection, schedule: Q04DX003 (sc), vehicle: suspension in saline) 38 % of control and 73 % of control; (dose: 600.0 mg/kg/injection, schedule: Q04DX003 (sc), vehicle: suspension in saline) 36 % of control and 65 % of control; (dose: 1200.0 mg/kg/injection, schedule: Q04DX003 (sc), vehicle: suspension in saline) 10 % of control and 85 % of control.
`COC(=O)Nc1cccc(-c2nc3ccc(NC(=O)OC)cc3c(=O)n2-c2ccccc2)c1`: the T/C reads like this: (dose: 50.0 mg/kg/injection, schedule: Q01DX010 (sc), vehicle: Klucel (hydroxypropylcellulose) (HPC)) 87 % of control and 158 % of control; under setting [1], 82 % of control and 108 % of control.
Turning to `[Cl][Pt+2][Cl].[NH-]C1CCC1.[NH2-]`, for the setting “dose: 12.5 mg/kg/injection, schedule: Q04DX003 (sc), vehicle: suspension in saline”, the T/C was -100 % of control and 27 % of control.
For `CCOC(=O)C(CC(C)C)NC(=O)C(N)Cc1ccc(N(CCCl)CCCl)cc1` (stereo not drawn), the T/C by setting is: (dose: 15.0 mg/kg/injection, schedule: Q04DX003 (sc), vehicle: water) -100 % of control, 2 % of control, 7 % of control; (dose: 30.0 mg/kg/injection, schedule: Q04DX003 (sc), vehicle: water) -100 % of control, -28 % of control, -6 % of control.
For the compound `COc1cccc2c1C(=O)c1c(O)c3c(c(O)c1C2=O)C[C@@](O)(C(C)=O)C[C@@H]3OC1CC(N(Cc2ccccc2)Cc2ccccc2)C(O)C(C)O1` (stereo partly drawn), the T/C is, setting by setting: (dose: 12.5 mg/kg/injection, schedule: Q01DX010 (sc), vehicle: water) 15 % of control, 93 % of control, 153 % of control; (dose: 25.0 mg/kg/injection, schedule: Q01DX010 (sc), vehicle: water) 5 % of control, 42 % of control, 45 % of control.
As to `OCCOCCN1CCN(CCCN2c3ccccc3Sc3ccc(C(F)(F)F)cc32)CC1`, the T/C reads like this: (dose: 6.0 mg/kg/injection, schedule: Q01DX010 (sc), vehicle: saline) 66 % of control and 107 % of control; (dose: 12.0 mg/kg/injection, schedule: Q01DX010 (sc), vehicle: saline) 19 % of control and 66 % of control.
`CNC(=O)/C=C/C1=CN2C(=O)c3ccc(C)c(O)c3NC(OC)C2C1` (stereo not drawn): the T/C by setting is: (dose: 0.4 mg/kg/injection, schedule: Q04DX003 (sc), vehicle: saline) -100 % of control and 72 % of control; (dose: 0.8 mg/kg/injection, schedule: Q04DX003 (sc), vehicle: saline) -100 % of control and 19 % of control.
For `CO[C@@]12[C@H](COC(N)=O)C3=C(C(=O)C(C)=C(N)C3=O)N1C[C@@H]1N[C@@H]12`, the T/C (dose: 1.5 mg/kg/injection, schedule: Q04DX003 (sc), vehicle: saline) is -74 % of control and -35 % of control.
